Laboratory results: the supplement of paper PMC10126150
Values marked as one replicate rest on one cluster of the flow cell; about a third of the high ones do not repeat.

Tested on: ATP
Test: switch fluorescence ratio, 500 uM ATP over buffer (Cy3 cluster intensity, sum of 5 cycles each) (fold (ratio)); higher = stronger signal-on switching upon ATP binding; sequences stand for … in TCGTCGGCAGCGTCAGATGTGTATAAGAGACAGTTTTTTTTTTTTTTTTTTTTTTTTT…TC
Conditions: aptamer strand: ATP DNA aptamer (quencher-CACCTGGGGGAGTATTGCGGAGGAAGG + anchor), 100 nM annealed; ATP concentration: 500 uM; one replicate
In short: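 Exposure to 500 uM ATP lasted 15 min at 22 °C before imaging, and a selection-buffer image was taken beforehand, for Cy3-labelled switching-strand clusters on a modified Illumina MiSeq flow-cell annealed to 100 nM quencher-labelled ATP aptamer. Five buffer/ATP cycles were run with NaOH stripping and re-annealing between them. The fluorescence ratio per cluster is summed target-cycle over summed buffer-cycle Cy3 intensity, averaged per switch-domain sequence. Clusters outside 100-1000 RFU were excluded.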

Row | Sequence | switch fluorescence ratio
1 | AATATAGGAG | 0.962
2 | GGGTTGTCGG | 0.971
3 | GGGCTGTCTC | 1
4 | TGAATTCAT | 1.04
5 | GGCAGGGGAG | 1.02
6 | AGAGTTAGTT | 0.973
7 | AGATTATCCA | 1.03
8 | ATTGGATATG | 0.983
9 | TATTCACAGC | 1.02
10 | ATTCCGGTCG | 1.04
11 | TCTCTTCCGG | 1.26
12 | CGGTACCGAC | 0.975
13 | GAATGTTATG | 1
14 | CCTGGGAGTT | 0.99
15 | TTGTCGGTGT | 0.994
16 | GCAACACAAG | 1.05
17 | TAGATCGTGC | 0.976
18 | ATTTAAAAGG | 1.07
19 | ACTTTTTCCC | 1.05
20 | GCAAACCTAT | 1.02
21 | TGTGATCAGT | 0.97
22 | AACCGTGCTA | 1.09
23 | AGAGCTCTT | 0.965

Row | Sequence | switch fluorescence ratio
24 | TAGTATTCAG | 0.994
25 | AACGGGCGAT | 0.977
26 | CTTGGTAGAT | 1.01
27 | GCACGATCGG | 1.05
28 | CGCTGTCATT | 1.01
29 | AATTTATTAT | 0.978
30 | TTTACGTCCC | 1.12
31 | TAATTGGATC | 1.01
32 | TGGCTCGGCC | 1.06
33 | ATGCCCTTT | 0.985
34 | TACCGGGGA | 1
35 | CCCCCGTCGA | 3.42
36 | CTTAAATCCC | 0.965
37 | TTACCTTGCG | 1.01
38 | ATTGAAATT | 1.02
39 | AGAACTGCAG | 0.984
40 | TAGGGTGCG | 0.993
41 | TCGCATAAGG | 1.28
42 | CCTAGTGAGA | 1
43 | AGAAGCTGTG | 1.01
44 | GTTCGAATGG | 1
45 | ACAAGTAGCG | 0.955
46 | GCTTACATAA | 1.11

Row | Sequence | switch fluorescence ratio
47 | AGATCTGGCG | 1.03
48 | AACGACTAAT | 1.13
49 | GAAGCATTGA | 1.31
50 | ATTGCTTTAC | 1.2
51 | TCTGTTTTAC | 1.08
52 | ATGTCGGCGG | 0.974
53 | CCCTTGAAAG | 1.01
54 | AGTAGCGTAC | 1.55
55 | CCGTTACACT | 1.2
56 | GTGGCAAAGG | 1
57 | TTTTATGATG | 0.973
58 | TATCTCGGAC | 1.04
59 | GCAATCTCCT | 4.36
60 | CCGGAAATCC | 1.05
61 | TAGATCTTG | 1
62 | GCATGTTGTT | 0.973
63 | ATTAATGGGG | 0.959
64 | GATATTTTCT | 1.03
65 | CCAACGTTGG | 0.999
66 | GATAGCAGCC | 1.11
67 | CTAGTTAATC | 1.01
68 | GCGGGCTTGT | 1.01
69 | TCTGAAAGGA | 0.973

Row | Sequence | switch fluorescence ratio
70 | ACTATGAGTG | 1.05
71 | GGGTCAAAAT | 1
72 | ATATGGGAGA | 1
73 | TGCCCGTTCC | 1.19
74 | TAGAGAGTTC | 1.14
75 | CGGGTAGCCG | 0.924
76 | GGATAGCTTG | 1.01
77 | AAGCGGCGGA | 1
78 | AGCCGGTAGT | 1.01
79 | GAGTACAGGG | 1
80 | GGAAATTG | 1.05
81 | GTCTGTGGCG | 1.01
82 | CTAAAGAAAT | 1.06
83 | TGCGTCTAGG | 0.982
84 | GAGTATTGCC | 1.07
85 | TACGATAACT | 1.15
86 | GGTGGTATTG | 0.991
87 | GGGCTAGTAG | 1
88 | TCCGCTTTCT | 2.65
89 | GACCTCTAGC | 1.04
90 | TTACTTTAAT | 1.07
91 | AGCGTGATGT | 1.03
92 | TGGCAGTGCT | 0.986

Row | Sequence | switch fluorescence ratio
93 | TAGCACGTCA | 1.06
94 | AGCCCGGATT | 0.996
95 | TATGAGAGC | 0.922
96 | TATAACCACG | 1.08
97 | AATTCTGTGT | 0.953
98 | GTCGAGTTTG | 0.971
99 | CGAGCTTAAA | 1
100 | TAGGCATCTG | 0.97
101 | TCGTCCGTTA | 1.36
102 | CAACTGACGG | 1.32
103 | TTCTTGGCTG | 1.02
104 | GGGTGTCATG | 1.05
105 | CATTCTCAGG | 1.04
106 | CATTCGAAAA | 0.992
107 | TCTTGTTGGA | 1.03
108 | CGGGAAGAAA | 0.951
109 | TACGTGCCGT | 0.995
110 | TTTCAACACT | 1.07
111 | GTATTATCCC | 0.997
112 | AACGTTTTGA | 1.02
113 | TCACGTTGAT | 1.01
114 | GCTGGAGCAA | 3.6
115 | GCAACTCCAC | 1.96

Row | Sequence | switch fluorescence ratio
116 | TGGGGCCGAC | 0.913
117 | TCCCTCTCTT | 1.04
118 | TGGTATCGAT | 1
119 | CTTAGAAATT | 0.998
120 | CACTATCTTT | 1.04
121 | CCAACCAGGT | 1.89
122 | ACAACTTCGG | 1.05
123 | GGCCAATGAG | 0.987
124 | AGTGATCTCG | 1.02
125 | CGGAGAGGTG | 1.01
126 | GTTAGGTACC | 0.962
127 | GCAGATGGTC | 1.06
128 | GTTTAATCAA | 0.994
129 | AAATATCTC | 0.987
130 | GTCCAGACTC | 1.02
131 | ATCGAGGCGC | 1
132 | GATGGCACTT | 0.996
133 | CGAGCTCCTT | 0.981
134 | TTTACTGTTA | 1.02
135 | CAAGGCCTAG | 0.98
136 | GAGGAGGAAA | 1.01
137 | GCGTCCCGGC | 0.97
138 | CTGGGTGTTT | 1.02

Row | Sequence | switch fluorescence ratio
139 | CTATACTACG | 1.08
140 | TGCTACGAGT | 1.02
141 | GGGGCACCTA | 0.996
142 | TTCCACCACG | 1.05
143 | CACTTTAATT | 1.07
144 | CCTCATATCT | 1.03
145 | TGGACCTGAT | 1.04
146 | ATTTACTGCT | 1
147 | AAAATGTATA | 1.2
148 | GCCGGCCCTG | 0.958
149 | TTAACGGTCA | 1.02
150 | TGCGGACGGT | 0.998
151 | AACAGTATTA | 1.32
152 | GGTAAATTTG | 0.987
153 | TGACGGGCCT | 1.02
154 | ATTTCAGGCA | 0.961
155 | TATATCTGAG | 1.03
156 | TAACAGCCA | 1.05
157 | TACCTGGTGC | 2.29
